This note sets out measurements from PMC10163088.

The chains behind the UniProt entries cited, without tags or fusion partners.
UniProt P26343: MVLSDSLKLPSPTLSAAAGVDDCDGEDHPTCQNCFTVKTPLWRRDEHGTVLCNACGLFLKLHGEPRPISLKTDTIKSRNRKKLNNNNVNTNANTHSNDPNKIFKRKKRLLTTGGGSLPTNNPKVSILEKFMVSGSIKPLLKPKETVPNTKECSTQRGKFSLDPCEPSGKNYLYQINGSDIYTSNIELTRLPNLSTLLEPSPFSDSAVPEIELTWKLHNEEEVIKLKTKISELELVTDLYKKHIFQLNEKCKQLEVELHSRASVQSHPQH

In assay [1] the target is T1, GST-Ure2 (full-length) (S. cerevisiae) (UniProt P23202).
T1 sequence: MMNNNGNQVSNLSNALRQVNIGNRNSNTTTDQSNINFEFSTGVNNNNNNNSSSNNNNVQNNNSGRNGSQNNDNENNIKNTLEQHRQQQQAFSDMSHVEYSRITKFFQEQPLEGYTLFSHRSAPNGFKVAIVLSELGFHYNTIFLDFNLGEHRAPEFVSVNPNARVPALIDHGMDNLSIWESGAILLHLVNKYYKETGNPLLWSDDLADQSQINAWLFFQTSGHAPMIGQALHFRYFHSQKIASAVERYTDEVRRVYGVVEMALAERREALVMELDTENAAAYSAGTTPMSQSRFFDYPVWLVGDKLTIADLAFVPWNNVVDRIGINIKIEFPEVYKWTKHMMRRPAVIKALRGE
Put plainly: pull-down; GST fusions of repressors (full-length or length variants) immobilised on GSH sepharose, incubated with bacterial total protein extracts containing HA-tagged Sin3, Cyc8 or Tup1 (or Tup1 length variants); elution with free GSH, anti-HA blot (Figs. 1, 3, 4, 5); only the target purified.

The target in assay [2] is GST-Dal80 (full-length) (S. cerevisiae) (UniProt P26343). Described as above.
Assay [3] addresses T2, GST-Cti6 (full-length) (S. cerevisiae) (UniProt Q08923).
T2 sequence: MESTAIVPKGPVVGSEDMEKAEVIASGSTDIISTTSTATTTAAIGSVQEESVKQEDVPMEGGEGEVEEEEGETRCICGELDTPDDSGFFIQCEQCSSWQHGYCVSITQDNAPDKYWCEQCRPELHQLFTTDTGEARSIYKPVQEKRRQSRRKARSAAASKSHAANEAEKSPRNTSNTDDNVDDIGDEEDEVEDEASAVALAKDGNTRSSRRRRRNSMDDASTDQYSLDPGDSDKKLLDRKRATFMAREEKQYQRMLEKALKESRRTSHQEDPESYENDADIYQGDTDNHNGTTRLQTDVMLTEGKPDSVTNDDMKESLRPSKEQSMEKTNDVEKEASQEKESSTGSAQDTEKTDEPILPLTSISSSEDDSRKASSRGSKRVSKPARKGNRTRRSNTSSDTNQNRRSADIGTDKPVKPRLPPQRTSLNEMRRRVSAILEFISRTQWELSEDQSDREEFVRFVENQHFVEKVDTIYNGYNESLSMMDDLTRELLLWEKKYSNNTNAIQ
The assay is described as above.

Assay [4] deals with T3, GST-Yox1 (full-length) (S. cerevisiae) (UniProt P34161).
T3 sequence: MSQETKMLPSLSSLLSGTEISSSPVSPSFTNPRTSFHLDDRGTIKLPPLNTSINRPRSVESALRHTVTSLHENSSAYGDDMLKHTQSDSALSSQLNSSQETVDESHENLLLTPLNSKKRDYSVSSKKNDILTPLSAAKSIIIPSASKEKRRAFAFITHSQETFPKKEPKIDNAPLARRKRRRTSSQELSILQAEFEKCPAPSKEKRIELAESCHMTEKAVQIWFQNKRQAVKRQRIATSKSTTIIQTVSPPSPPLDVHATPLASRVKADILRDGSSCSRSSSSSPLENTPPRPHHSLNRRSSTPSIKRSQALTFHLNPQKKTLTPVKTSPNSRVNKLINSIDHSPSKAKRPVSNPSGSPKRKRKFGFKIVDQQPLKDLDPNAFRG
The assay is described as above.

For assay [5], the target named is T4, GST-Gal80 (full-length) (S. cerevisiae) (UniProt P04387).
T4 sequence: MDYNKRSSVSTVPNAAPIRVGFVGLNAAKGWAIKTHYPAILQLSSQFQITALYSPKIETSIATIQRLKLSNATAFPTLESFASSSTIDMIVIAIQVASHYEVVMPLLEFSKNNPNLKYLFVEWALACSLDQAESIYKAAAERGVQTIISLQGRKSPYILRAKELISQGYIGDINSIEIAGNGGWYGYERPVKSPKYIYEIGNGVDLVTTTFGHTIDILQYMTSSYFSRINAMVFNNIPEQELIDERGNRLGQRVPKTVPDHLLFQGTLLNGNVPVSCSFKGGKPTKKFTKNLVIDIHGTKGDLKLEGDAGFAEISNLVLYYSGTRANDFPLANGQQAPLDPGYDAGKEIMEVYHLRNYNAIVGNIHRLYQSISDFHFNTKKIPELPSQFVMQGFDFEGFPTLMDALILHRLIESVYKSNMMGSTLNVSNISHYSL
The description is as above.

Assay [6] addresses T5, GST-Whi5 (full-length) (S. cerevisiae) (UniProt Q12416).
T5 sequence: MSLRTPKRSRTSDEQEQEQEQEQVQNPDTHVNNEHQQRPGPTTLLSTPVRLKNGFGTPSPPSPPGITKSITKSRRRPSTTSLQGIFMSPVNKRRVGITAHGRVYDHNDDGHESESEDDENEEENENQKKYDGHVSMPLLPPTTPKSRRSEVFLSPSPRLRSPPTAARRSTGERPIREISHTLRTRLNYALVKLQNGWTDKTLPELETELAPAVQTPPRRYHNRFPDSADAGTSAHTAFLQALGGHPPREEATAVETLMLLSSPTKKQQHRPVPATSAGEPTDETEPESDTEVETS
Put plainly: pull-down; GST fusions of full-length repressors immobilised on GSH sepharose, incubated with protein extracts from yeast transformants containing epitope-tagged Sin3 length variants; anti-HA blot (Fig. 2); only the target purified.

In assay [7] the target is T6, GST-Sko1 (full-length) (S. cerevisiae), Q02100.
T6 chain: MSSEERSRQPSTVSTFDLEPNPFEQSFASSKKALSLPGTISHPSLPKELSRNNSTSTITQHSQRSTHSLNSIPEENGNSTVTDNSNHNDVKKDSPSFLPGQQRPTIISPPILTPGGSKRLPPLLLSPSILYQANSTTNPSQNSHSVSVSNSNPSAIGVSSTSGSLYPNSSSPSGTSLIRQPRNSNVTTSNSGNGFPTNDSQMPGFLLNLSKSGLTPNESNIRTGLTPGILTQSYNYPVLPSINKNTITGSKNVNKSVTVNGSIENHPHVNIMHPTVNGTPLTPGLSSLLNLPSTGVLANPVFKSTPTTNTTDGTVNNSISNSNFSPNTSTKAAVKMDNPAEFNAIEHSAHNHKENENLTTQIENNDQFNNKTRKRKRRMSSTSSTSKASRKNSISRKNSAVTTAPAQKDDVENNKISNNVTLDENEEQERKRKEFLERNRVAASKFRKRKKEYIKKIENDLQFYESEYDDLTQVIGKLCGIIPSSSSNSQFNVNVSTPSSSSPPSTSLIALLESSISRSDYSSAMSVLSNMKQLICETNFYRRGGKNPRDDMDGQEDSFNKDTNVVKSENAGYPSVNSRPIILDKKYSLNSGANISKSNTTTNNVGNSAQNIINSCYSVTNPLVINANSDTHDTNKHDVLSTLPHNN
The assay is described as follows: pull-down; GST fusions of repressors (full-length or length variants) immobilised on GSH sepharose, incubated with bacterial total protein extracts containing HA-tagged Sin3, Cyc8 or Tup1 (or Tup1 length variants); elution with free GSH, anti-HA blot (Figs. 1, 3, 4, 5); only the target purified. Particulars: remark: other sources report otherwise.

Results are given in words; binding and its absence hold for the method and conditions named. Binding seen in cells or lysates may run through a third protein. Some results given as binding are weak or reduced against the parent protein; the word gives no strength. For part of these data: Where a sequence is shown, tags or fusion partners need not be part of it.

On to “HA3-Tup1 length variant aa 599-713 (WD40 repeats 6 and 7; pVS5) (from UniProt P16649 599-713) (domain or fragment)”, for which the binding result in assay [1], in assay [2], in assay [3], in assay [4] and in assay [5] was “binds” throughout.
Take “HA3-Tup1 length variant aa 1-339 (no WD40 repeats; pVS1) (from UniProt P16649 1-339) (domain or fragment)”: the binding result in assay [1], in assay [2], in assay [3], in assay [4] and in assay [5] was “no binding” in each case.
In the case of “HA3-Tup1 length variant aa 340-713 (seven WD40 repeats; pVS2) (from UniProt P16649 340-713) (domain or fragment)”, the binding result in assay [1], in assay [2], in assay [3], in assay [4] and in assay [5] was “binds” throughout.

B1: epitope-tagged Sin3 length variant 601-950 (PAH3 + HID1; pYJ90) (domain or fragment, UniProt P22579 601-950)
chain: TSLTEQYAPSSIQHQQQHPQSISPIANTQYGDIPVRPEIDLDPSIVPVVPEPTEPIENNISLNEEVTFFEKAKRYIGNKHLYTEFLKILNLYSQDILDLDDLVEKVDFYLGSNKELFTWFKNFVGYQEKTKCIENIVHEKHRLDLDLCEAFGPSYKRLPKSDTFMPCSGRDDMCWEVLNDEWVGHPVWASEDSGFIAHRKNQYEETLFKIEEERHEYDFYIESNLRTIQCLETIVNKIENMTENEKANFKLPPGLGHTSMTIYKKVIRKVYDKERGFEIIDALHEHPAVTAPVVLKRLKQKDEEWRRAQREWNKVWRELEQKVFFKSLDHLGLTFKQADKKLLTTKQLIS
For the molecule B1, in assay [6], the binding entry is “binds”.

B2: HA3-Tup1 (full-length; pFK76), P16649 1-713 (protein)
chain: MTASVSNTQNKLNELLDAIRQEFLQVSQEANTYRLQNQKDYDFKMNQQLAEMQQIRNTVYELELTHRKMKDAYEEEIKHLKLGLEQRDHQIASLTVQQQRQQQQQQQVQQHLQQQQQQLAAASASVPVAQQPPATTSATATPAANTTTGSPSAFPVQASRPNLVGSQLPTTTLPVVSSNAQQQLPQQQLQQQQLQQQQPPPQVSVAPLSNTAINGSPTSKETTTLPSVKAPESTLKETEPENNNTSKINDTGSATTATTTTATETEIKPKEEDATPASLHQDHYLVPYNQRANHSKPIPPFLLDLDSQSVPDALKKQTNDYYILYNPALPREIDVELHKSLDHTSVVCCVKFSNDGEYLATGCNKTTQVYRVSDGSLVARLSDDSAANNHRNSITENNTTTSTDNNTMTTTTTTTITTTAMTSAAELAKDVENLNTSSSPSSDLYIRSVCFSPDGKFLATGAEDRLIRIWDIENRKIVMILQGHEQDIYSLDYFPSGDKLVSGSGDRTVRIWDLRTGQCSLTLSIEDGVTTVAVSPGDGKYIAAGSLDRAVRVWDSETGFLVERLDSENESGTGHKDSVYSVVFTRDGQSVVSGSLDRSVKLWNLQNANNKSDSKTPNSGTCEVTYIGHKDFVLSVATTQNDEYILSGSKDRGVLFWDKKSGNPLLMLQGHRNSVISVAVANGSPLGPEYNVFATGSGDCKARIWKYKKIAPN
Take B2: in assay [7], the binding result is reported as “binds”.

B3: epitope-tagged Sin3 length variant 801-1100 (HID1; pYJ89) (domain or fragment, UniProt P22579 801-1100)
chain: NQYEETLFKIEEERHEYDFYIESNLRTIQCLETIVNKIENMTENEKANFKLPPGLGHTSMTIYKKVIRKVYDKERGFEIIDALHEHPAVTAPVVLKRLKQKDEEWRRAQREWNKVWRELEQKVFFKSLDHLGLTFKQADKKLLTTKQLISEISSIKVDQTNKKIHWLTPKPKSQLDFDFPDKNIFYDILCLADTFITHTTAYSNPDKERLKDLLKYFISLFFSISFEKIEESLYSHKQNVSESSGSDDGSSIASRKRPYQQEMSLLDILHRSRYQKLKRSNDEDGKVPQLSEPPEEEPNT
As to B3, the binding entry in assay [6] is reported as “binds”.
